Assay results from the supplement of paper PMC7826260.
The list shows a part of the results. The data describe in vitro nicking of single-stranded DNA by Rep domains at 3 µM enzyme and 37 °C for 1 h; the strands have 90 letters, of which the middle is given. A value is the log2 ratio of uncut reads to the pool without enzyme; more negative means more cut, near 0 not cut, and no call is made. The scaling is to total reads, so uncut sequences can rise above 0 when many others are cut.

Columns and labels:
Assay in all cases: uncleaved DNA left, log2 of reads against the no-enzyme library (log2 ratio); higher = less cleavage (more negative = more Rep cleavage of the k-mer); sequences stand for … in CTCGTCCG…ACCGGAGA
[1] = tested on: T1, Rep nickase domain of Muscovy duck circovirus
T1 sequence (protein, residues 1-111, tag omitted): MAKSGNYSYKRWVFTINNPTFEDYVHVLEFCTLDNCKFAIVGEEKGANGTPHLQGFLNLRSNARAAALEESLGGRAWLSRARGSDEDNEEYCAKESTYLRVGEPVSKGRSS
Description: (§1)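 A pool of 90-nt single-stranded DNAs with seven random bases just before the constant AC of the nick site (name = the seven bases) was cut by 3 µM recombinant His6-SUMO-tagged Rep nickase domain (300 nM DNA, 50 mM HEPES pH 8.0, 50 mM NaCl, 1 mM MnCl2, 1 h, 37 °C, three replicates). Uncut DNA was amplified and sequenced.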

[2] = tested on: T2, Rep nickase domain of banana bunchy top virus
T2 sequence (protein, residues 1-94, tag omitted): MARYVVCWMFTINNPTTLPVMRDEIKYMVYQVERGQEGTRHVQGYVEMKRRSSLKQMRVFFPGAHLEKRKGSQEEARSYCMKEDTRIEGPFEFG
Description: as §1

[3] = tested on: T3, Rep nickase domain of cabbage leaf curl virus
T3 sequence (protein, residues 1-116, tag omitted): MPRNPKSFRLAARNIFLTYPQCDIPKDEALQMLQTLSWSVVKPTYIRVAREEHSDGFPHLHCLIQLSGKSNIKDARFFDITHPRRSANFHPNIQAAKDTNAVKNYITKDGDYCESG
Description: as §1

[4] = tested on: T4, Rep nickase domain of chickpea chlorotic dwarf virus
T4 sequence (protein, residues 1-124, tag omitted): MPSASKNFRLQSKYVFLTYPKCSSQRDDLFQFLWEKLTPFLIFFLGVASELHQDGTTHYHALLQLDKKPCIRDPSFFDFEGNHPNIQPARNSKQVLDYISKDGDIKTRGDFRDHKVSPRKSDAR
Description: as §1

[5] = tested on: T5, Rep nickase domain of faba bean necrotic yellows virus
T5 sequence (protein, residues 1-98, tag omitted): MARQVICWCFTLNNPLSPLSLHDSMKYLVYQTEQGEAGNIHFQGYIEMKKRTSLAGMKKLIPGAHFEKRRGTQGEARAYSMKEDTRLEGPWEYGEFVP
Description: as §1

[6] = tested on: T6, Rep nickase domain of maize striate mosaic virus
T6 sequence (protein, residues 1-117, tag omitted): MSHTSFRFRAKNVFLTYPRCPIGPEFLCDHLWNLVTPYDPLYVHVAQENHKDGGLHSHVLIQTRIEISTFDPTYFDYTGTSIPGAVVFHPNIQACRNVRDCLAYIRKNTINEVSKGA
Description: as §1

[7] = tested on: T7, Rep nickase domain of porcine circovirus 2
T7 sequence (protein, residues 2-116, tag omitted): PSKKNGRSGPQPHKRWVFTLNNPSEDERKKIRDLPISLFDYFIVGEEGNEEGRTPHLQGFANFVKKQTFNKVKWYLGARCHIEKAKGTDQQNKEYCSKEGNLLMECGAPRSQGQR
Description: as §1

[8] = tested on: T8, Rep nickase domain of tomato golden mosaic virus
T8 sequence (protein, residues 1-124, tag omitted): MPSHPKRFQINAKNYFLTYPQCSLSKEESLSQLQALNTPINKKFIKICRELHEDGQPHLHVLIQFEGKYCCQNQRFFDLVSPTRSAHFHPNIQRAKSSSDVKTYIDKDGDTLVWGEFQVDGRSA
Description: as §1

[9] = tested on: T9, Rep nickase domain of tomato yellow leaf curl virus
T9 sequence (protein, residues 1-136, tag omitted): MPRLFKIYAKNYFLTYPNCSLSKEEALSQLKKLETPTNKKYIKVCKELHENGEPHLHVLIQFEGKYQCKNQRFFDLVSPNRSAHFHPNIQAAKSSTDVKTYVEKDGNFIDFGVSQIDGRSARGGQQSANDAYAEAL
Description: as §1

[10] = tested on: T10, Rep nickase domain of wheat dwarf virus
T10 sequence (protein, residues 1-137, tag omitted): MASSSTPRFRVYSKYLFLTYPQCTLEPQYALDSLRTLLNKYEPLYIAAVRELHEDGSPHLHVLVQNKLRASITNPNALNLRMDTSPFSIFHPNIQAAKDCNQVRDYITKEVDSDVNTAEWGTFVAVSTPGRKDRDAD
Description: as §1

Row | Sequence | uncleaved DNA left (log2) [1] | uncleaved DNA left (log2) [2] | uncleaved DNA left (log2) [3] | uncleaved DNA left (log2) [4] | uncleaved DNA left (log2) [5] | uncleaved DNA left (log2) [6] | uncleaved DNA left (log2) [7] | uncleaved DNA left (log2) [8] | uncleaved DNA left (log2) [9] | uncleaved DNA left (log2) [10]
1 | GCCGGGC | -0.0362 | -0.0101 | 0.604 | 0.978 | -0.0429 | 1.54 | 0.193 | 0.134 | -0.0519 | 0.0604
2 | GAAACAT | 0.064 | 0.137 | 0.87 | 1.91 | 0.031 | 2.19 | 0.237 | 0.0626 | 0.1 | 0.238
3 | TCTTCTA | -0.0753 | -0.144 | 0.027 | -1.25 | 0.0389 | -0.361 | -0.3 | 0.0303 | -0.1 | -0.0387
4 | CCACTCT | 0.0894 | -0.0211 | -0.378 | -2.45 | 0.0307 | -0.68 | 0.0113 | 0.0127 | 0.0212 | -0.158
5 | CGGAGTC | 0.0856 | 0.172 | 0.359 | 0.46 | 0.167 | 0.283 | 0.149 | 0.0187 | 0.135 | 0.163
6 | TACCTGC | -0.051 | -0.0887 | -0.583 | -1.15 | -0.112 | -1.07 | -0.354 | -0.192 | -0.0984 | -0.203
7 | TGGCTCA | 0.0363 | 0.0653 | 0.299 | 0.141 | 0.127 | 0.46 | -0.0423 | 0.103 | 0.161 | 0.106
8 | TTTTCCT | -2.2 | -0.207 | -0.0363 | -2.23 | -0.00343 | -0.546 | -1.4 | -0.148 | -0.0144 | -0.197
9 | AATGATA | 0.0313 | -0.169 | -0.166 | -0.921 | 0.0137 | 0.493 | -0.0824 | -0.0725 | -0.177 | -0.0883
10 | ATTGTTA | -0.0368 | -0.0379 | -0.187 | -1.13 | 0.019 | -0.688 | -0.354 | 0.0053 | 0.0708 | 0.0508
11 | AGCGAAT | -0.00944 | 0.15 | 0.0117 | 0.777 | 0.0564 | 1.57 | 0.0978 | 0.218 | 0.0173 | 0.134
12 | ACCCGAC | 0.0726 | -0.029 | 0.0626 | 0.204 | 0.117 | -0.499 | 0.0363 | -0.0132 | -0.0685 | -0.00358
13 | AGTCCCA | -0.0158 | -0.0208 | 0.336 | 0.418 | -0.0351 | 1.22 | -0.484 | -0.104 | 0.0807 | -0.215
14 | AAGACTC | 0.154 | 0.102 | 0.142 | 0.377 | 0.0446 | 1.02 | 0.0379 | 0.0123 | 0.0236 | 0.17
15 | TTCATAG | 0.0389 | 0.0278 | -0.688 | -0.689 | 0.0585 | -1.33 | 0.196 | -0.0199 | 0.0983 | -0.0452
